Laboratory results published in PMC6919601, “Identification of Plasmodium dipeptidyl aminopeptidase allosteric inhibitors by high throughput screening” (PLoS ONE, 2019).
In all, about 110,000 compounds went through this assay and about 230 (0.21%) showed an effect of 50% or more. The list shows a part of the results.

biological target: DPAP1 (Plasmodium falciparum, UniProt Q8IIJ9); experiment: primary screen, percent inhibition; read by cleavage of a fluorogenic dipeptide substrate; higher = more effect of the substance; parameters: species or system P. falciparum D10 trophozoite lysates; single well
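Note: 30 min substrate incubation versus DMSO and 10 µM JCP410 controls.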

Sequence of DPAP1 (Q8IIJ9 whole entry, looked up): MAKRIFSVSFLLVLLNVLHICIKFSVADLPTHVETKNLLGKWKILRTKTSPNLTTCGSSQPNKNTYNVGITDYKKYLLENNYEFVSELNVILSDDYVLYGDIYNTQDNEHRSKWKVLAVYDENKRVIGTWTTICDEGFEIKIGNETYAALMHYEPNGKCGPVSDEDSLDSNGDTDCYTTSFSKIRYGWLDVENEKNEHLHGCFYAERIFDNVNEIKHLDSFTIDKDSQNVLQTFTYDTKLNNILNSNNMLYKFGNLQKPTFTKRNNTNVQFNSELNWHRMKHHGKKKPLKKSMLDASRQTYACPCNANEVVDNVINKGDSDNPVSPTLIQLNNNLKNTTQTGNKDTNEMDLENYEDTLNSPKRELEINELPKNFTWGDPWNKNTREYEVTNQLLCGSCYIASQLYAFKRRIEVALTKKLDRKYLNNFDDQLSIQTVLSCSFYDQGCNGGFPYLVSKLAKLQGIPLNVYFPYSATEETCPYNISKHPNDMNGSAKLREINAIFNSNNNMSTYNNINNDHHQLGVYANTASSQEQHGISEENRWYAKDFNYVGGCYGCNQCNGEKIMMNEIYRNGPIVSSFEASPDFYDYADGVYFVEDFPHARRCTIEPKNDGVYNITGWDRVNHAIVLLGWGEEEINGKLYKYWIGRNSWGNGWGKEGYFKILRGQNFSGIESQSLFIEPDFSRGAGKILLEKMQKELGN

| SMILES | % Inhibition @ 10 uM [%] |
| --- | --- |
| Cc1ccsc1-c1ncnn1-c1ccccc1 | 3.05 |
| CCCc1cc2c(-c3ccccc3)cc(=O)oc2cc1O | 3.06 |
| C=CCSc1nc(-c2ccccc2)cc(-c2ccc(OC)cc2)c1C#N | -0.216 |
| COc1ccc2nc(C)c(C/C=C(/C)Cl)c(S)c2c1 | -3.77 |
| O=C(ON1C(=O)c2ccccc2C1=O)c1ccc(F)cc1 | 1.84 |
| CC(C)S(=O)(=O)C1=NSC2=NC(=O)/C(=C\c3ccc(SCc4ccccc4)o3)C(=N)N21 | -3.45 |
| COc1ccc(C(=O)Nc2ccc(OC)c(OC)c2)cc1 | -4.15 |
| CC1=C(C(=O)N2CCOCC2)C(c2ccc3c(c2)OCO3)C2=C(O)CCCC2=N1 (stereo not drawn) | 6.48 |
| Fc1ccc(N2CCN(Cc3ccsc3)CC2)cc1 | 3.01 |
| COc1ccc(NC(=O)C2CCCN2C(=O)OC(C)(C)C)cc1 (stereo not drawn) | 6.77 |
| O=C(O)C1(c2ccccc2)CCC(O)C1 (stereo not drawn) | 1.4 |
| N#CC1=C(N)Oc2c(c(O)nc3ccccc23)C1c1ccccc1 (stereo not drawn) | -2.21 |
| COc1cc(NC(=O)c2cnn(C)c2)c(OC)cc1Cl | 2.65 |
| O=C(Nc1c2c(nn1-c1ccc(F)cc1)CSC2)c1ccc(S(=O)(=O)N2CCOCC2)cc1 | -1.43 |
| C=CCn1c(SCC(N)=O)nc2sc3c(c2c1=O)CC(C)(C)OC3 | -5.14 |
| CCN1CCCC1CNC(=O)C1CCN(c2nnc(N3CCCC3=O)s2)CC1 (stereo not drawn) | -2.85 |
| Cn1cc(CCC(=O)NCCCN2CCC(N3CCCCC3)CC2)c2ccccc21 | -0.822 |
| CS(=O)(=O)CC[C@@H](C(=O)NCc1ccc(F)cc1)N1Cc2ccccc2C1=O | 2.93 |
| OC1(c2ccc(Br)cc2)CCN(Cc2ccc(Br)cc2)CC1 | -2.95 |
| Cc1nnc2sc(-c3ccccc3Cl)nn12 | -6.56 |
| CC(C)(C)c1cc(C(=O)Nc2ccccc2C(=O)O)cc(C(C)(C)C)c1 | -1.45 |
| COc1ccccc1C1=N/C(=C\c2ccc(F)cc2)C(=O)O1 | 6.86 |
| COc1ccc(S(=O)(=O)NCc2ccc(C(=O)NCCCOC(C)C)cc2)cc1 | -3.35 |
| O=C(/N=C1\SC2CS(=O)(=O)CC2N1c1ccc(Br)cc1)c1ccccc1 (stereo not drawn) | -1.02 |
| COc1ccc(S(=O)(=O)Nc2nc3ccccc3s2)cc1 | -2.07 |
| Cc1cc(NC(=O)CSc2nc3c(sc4ccccc43)c(=O)n2CCCN2CCOCC2)[nH]n1 | 6.65 |

| SMILES | % Inhibition @ 10 uM [%] |
| --- | --- |
| CC(=O)c1cc(C#N)c(SCC(=O)c2cc3ccccc3oc2=O)nc1C | -1.6 |
| COC(=O)C1=CN(Cc2ccc(OC)c(OC)c2)C=C(C(=O)OC)C1c1cccs1 | -11.3 |
| CCOc1ccc(OCCSc2nc3ccccc3n2CC(O)CO)cc1 (stereo not drawn) | -1.84 |
| CCc1ccccc1NC(=O)CN(c1cc(Cl)cc(Cl)c1)S(C)(=O)=O | 0.161 |
| N#CC1=C(N)OC2=C(C(=O)CCC2)C1c1ccc(Cl)cc1 (stereo not drawn) | 4.73 |
| CCCCCCOc1ccc(COC2C(C(O)CO)OC3OC(C)(C)OC32)cc1 (stereo not drawn) | -4.7 |
| N#CC1=C2SCN(Cc3ccco3)CN2C(=O)CC1c1ccc(Cl)cc1 (stereo not drawn) | 42.2 |
| Cc1cc(C)c2c(-n3cccc3)nn(CC(=O)NCC3CCCO3)c2n1 (stereo not drawn) | -2.99 |
| C=CCN1C(=O)N/C(=C/c2cc(Br)c(OCc3ccccc3C#N)c(OC)c2)C1=O | 1.4 |
| O=C(NCc1ccccc1)c1nccnc1CO | -1.08 |
| CCOC(=O)N1CCC(NC(=O)c2ccc3c(Cl)c4c(nc3c2)CCCC4)CC1 | -3.68 |
| CCOC(=O)N1CCC(NC(=O)c2cc3sccc3n2CC)CC1 | -8.58 |
| CCOC(=O)N1CCN(C(=O)C2=C(C)C(=O)OC23CCCCC3)CC1 | 4.77 |
| CCSc1nc2c(c(=O)[nH]c(=O)n2C)n1Cc1ccccc1 | -0.864 |
| Cc1cccc2c1-c1sc(C(=O)N3CCC(C(N)=O)CC3)cc1CO2 | -1.37 |
| N#CC1=C2SCN(CCc3ccccc3)CN2C(=O)CC1c1ccc(F)cc1 (stereo not drawn) | 51.6 |
| COc1ccc(C(=O)N2CCCC2)cc1OC | -5.57 |
| CCOc1sc2nc(C)n(CC(=O)NCc3ccccc3Cl)c(=O)c2c1C | 1.91 |
| CCOc1ccccc1NC(=O)C(C)Oc1ccccc1 (stereo not drawn) | -2.29 |
| CCOc1ccccc1NC(=O)c1ccccc1OC | 3.53 |
| O=C(O)CNC(=S)N1CC2CC(C1)c1cccc(=O)n1C2 (stereo not drawn) | 1.16 |
| Cc1ccccc1Cn1ccc(NC(=O)COCc2cc(-c3cccs3)on2)n1 | -0.501 |
| OCCN(Cc1ccccc1)Cc1ccccc1 | 1.62 |
| Cc1ccc2c(c1)c1c3n2CCN(C=O)C3CCC1 (stereo not drawn) | -0.128 |
| Cc1cc(C)c(S(=O)(=O)NCCCn2ccnc2)c(C)c1 | 0.769 |
| Cc1cccc(N2C(=O)NC(=O)/C(=C\c3ccc(N(C)C)cc3)C2=O)c1 | 1.43 |

| SMILES | % Inhibition @ 10 uM [%] |
| --- | --- |
| O=C(Nc1cc(-c2ccccc2)[nH]n1)c1ccc(-c2ccccc2)cc1 | -1.25 |
| CCn1cc(/C=C(\NC(=O)c2ccccc2)C(=O)NCc2ccccc2)c2ccccc21 | -1.74 |
| COc1ccc(-c2noc(CN(C(=O)N3CCOCC3)C(C)C)n2)cc1 | -1.22 |
| O=C1CC(c2ccccc2)CC(=O)C1=CNCCc1ccccc1 (stereo not drawn) | 3.04 |
| O=C(COCc1cc(-c2cccs2)on1)NCc1ccccc1 | -4.67 |
| Cc1cc(C)n2nc(CNS(=O)(=O)c3ccc(Br)s3)nc2n1 | -9.71 |
| O=C(NCc1ccco1)C1CCCN(S(=O)(=O)c2ccc(-c3ccc(O)nn3)s2)C1 (stereo not drawn) | -0.887 |
| CCC(C)NC(=O)Cn1ncn2cccc2c1=O (stereo not drawn) | -7.17 |
| O=C(C1CCCN(c2nn3cc(-c4ccc(F)cc4)nc3s2)C1)N1CCOCC1 (stereo not drawn) | 3.7 |
| CC(=O)c1ccccc1OCC(O)Cn1ccnc1 (stereo not drawn) | -1.11 |
| COC(=O)c1ccc(NC(=O)CCC(=O)O)cc1 | 0.774 |
| C/C(Cl)=C\CSc1nc2c(c(=O)[nH]c(=O)n2C)n1Cc1ccccc1 | -2.78 |
| COc1ccccc1NC(=O)c1cc(C)cc(C)c1 | -2.32 |
| Cc1[nH]c2ccccc2c1C(=O)/C=C/c1ccco1 | 3 |
| Cc1cc(C(=O)N2CC(C)CC(C)C2)n[nH]1 (stereo not drawn) | -1.3 |
| COc1ccc(-c2noc(CN(C(=O)c3ccc(C)cc3Cl)C(C)C)n2)cc1 | -4.62 |
| COc1cccc(C(=O)Nc2nnc(-c3ccccc3)s2)c1 | 1.12 |
| Cc1nc2ccn(Cc3ccco3)c(=O)c2cc1C(=O)NC1CCN(Cc2ccccc2)CC1 | 0.586 |
| Fc1ccc(-c2noc3ncnc(N4CCCN(Cc5ccccc5Cl)C4)c23)cc1 | 1.92 |
| COC(=O)[C@@]1(C)CC[C@]2(C)CC[C@]3(C)C(=CC(=O)C4[C@@]5(C)Cc6c([nH]c7ccccc67)C(C)(C)C5CC[C@]43C)C2C1 (stereo partly drawn) | 4.26 |
| O=C(Nc1ccc(C(=O)c2ccccc2)cc1)c1cccnc1 | 2.5 |
| Cc1ccc(N2C(=O)CC(N(C(=O)CSc3ncccn3)C3CCCCC3)C2=O)cc1 (stereo not drawn) | 3.27 |
| CCN1C(=O)NC(=O)/C(=C\c2cn(CCOc3ccccc3)c3ccccc23)C1=O | -4.93 |
| CC(=O)N1CCC2(CC1)OC(=O)C(C)=C2C(=O)NCCCOC(C)C | 1.6 |
| CC(C)(C)C1C/C(=C/c2ccccn2)C(=O)/C(=C\c2ccccn2)C1 (stereo not drawn) | -1.32 |
| CC(=O)CCS(=O)(=O)c1ccc(Cl)cc1 | -7.85 |

| SMILES | % Inhibition @ 10 uM [%] |
| --- | --- |
| O=c1[nH]c2sc3c(c2c(=O)n1-c1ccc(Cl)c(Cl)c1)CCC3 | -2.48 |
| COc1ccc(CNC(=O)c2cnn3c2NC(c2ccc(F)cc2)CC3C(F)(F)F)cc1 (stereo not drawn) | -4.39 |
| Cn1cccc1Cc1nnc(SCC(=O)NCc2ccco2)n1CCc1ccccc1 | -5.76 |
| Cc1ccc(-n2nc(C)c3c(C(=O)NCc4ccc(CN5CCOCC5)o4)cc(C)nc32)cc1 | -2.84 |
| COc1ccc(-c2cc(/N=C(/NC3CCCCC3)SC)[nH]n2)c(OC)c1 | -5.92 |
| O=C(Nc1cccc2ncccc12)c1sc2ccccc2c1Cl | 9.37 |
| CC(Oc1ccccc1)C(=O)NC1CCCC1 (stereo not drawn) | 1.02 |
| O=C(NCCC1=CCCCC1)/C(=C/c1cccs1)NC(=O)c1ccccc1 | -2.46 |
| COc1ccc(CNC(=O)Cn2cc3c(n2)CCCC3)cc1 | 0.137 |
| Cc1ccc(OCC(=O)NCCC2=CCCCC2)c(Br)c1 | -2.67 |
| COCCNC(=O)Cc1ccccc1 | -4.58 |
| O=c1c(NCc2ccco2)c(-c2ccc(Cl)cc2)c1=O | 3.47 |
| CN1CCN(C(=O)c2ccco2)CC1 | -3.99 |
| O=C(CCCOc1ccc(Cl)cc1Cl)NC1CCCCC1 | -3.94 |
| COc1ccccc1C(=O)NC(C(C)C)C(C)C | 4.31 |
| COc1cc(/C=C2\CCc3ccccc3C2=O)ccc1OC(C)C | -0.503 |
| CCC1(C)CC(c2csc(N)n2)CCO1 (stereo not drawn) | -0.0369 |
| COC(=O)c1cc(S(=O)(=O)NCC2CCN(Cc3ccc(C)cc3)C2)c[nH]1 (stereo not drawn) | -2.3 |
| COc1ccc(NC(=O)c2ccc(CN3CCOCC3)cc2)cc1OC | 2.13 |
| CC(C)(C)n1ncc(Cl)c(Cl)c1=O | 0.166 |
| Cc1nc(CSc2ncnc3scc(-c4ccccc4)c23)cs1 | 2.4 |
| CC(C)C[C@H](NC(=O)c1cc(-c2ccccc2Cl)no1)C(=O)NCC#N | -6.98 |
| COc1cc(C(=O)Nc2ccc(C(=O)NC(C)(C)C)cc2)cc(OC)c1OC | -4.39 |
| CCOC(=O)N1CCN(C(=O)Cn2ncc3c4ccccc4n(C)c3c2=O)CC1 | -1.92 |
